# According to a collection of fitness landscapes (doi:10.1126/science.1257360):
# This is one part of the list.
# B1: PhoQ; a variant is named by its letters at X, in order, P23837 (parent)
# chain: MKKLLRLFFPLSLRVRFLLATAAVVLVLSLAYGMVALIGYSVSFDKTTFRLLRGESNLFYTLAKWENNKLHVELPENIDKQSPTMTLIYDENGQLLWAQRDVPWLMKMIQPDWLKSNGFHEIEADVNDTSLLLSGDHSIQQQLQEVREDDDDAEMTHSVAVNVYPATSRMPKLTIVVVDTIPVELKSSYMVWSWFIYVLSANLLLVIPLLWVAAWWSLRPIEALAKEVRELEEHNRELLNPATTRELTSLVRNLNRLLKSERERYDKYRTTLTDLTHSLKTPLXXLQXXLRSLRSEKMSVSDAEPVMLEQISRISQQIGYYLHRASMRGGTLLSRELHPVAPLLDNLTSALNKVYQRKGVNISLDISPEISFVGEQNDFVEVMGNVLDNACKYCLEFVEISARQTDEHLYIVVEDDGPGIPLSKREVIFDRGQRVDTLRPGQGVGLAVAREITEQYEGKIVAGESMLGGARMEVIFGRQHSAPKDE
# Variants of: B1
# Test: enrichment ratio after two sorts for PhoP signalling (ratio (wild type AVST 3.29)); higher = more functional
# Details: with PhoP (E. coli)
row,Variant,enrichment ratio
1,VDDI,≤ 0.25
2,LIHP,0.285
3,RSWD,≤ 0.25
4,WEPW,≤ 0.25
5,RSSP,≤ 0.25
6,VCAN,≤ 0.25
7,GDPQ,≤ 0.25
8,KNVK,≤ 0.25
9,NEGL,≤ 0.25
10,EPIH,≤ 0.25
11,WRFE,≤ 0.25
12,GEYG,≤ 0.25
13,HRAQ,≤ 0.25
14,WCPE,≤ 0.25
15,SNFY,≤ 0.25
16,LVAF,≤ 0.25
17,HKDC,≤ 0.25
18,LPPS,≤ 0.25
19,LPEK,≤ 0.25
20,NRIF,≤ 0.25
21,PWPQ,≤ 0.25
22,NMHA,≤ 0.25
23,PQPS,≤ 0.25
24,GGGR,≤ 0.25
25,TGES,≤ 0.25

row,Variant,enrichment ratio
1,WEFQ,≤ 0.25
2,PGYS,≤ 0.25
3,QFHG,≤ 0.25
4,ETNP,≤ 0.25
5,NGGY,≤ 0.25
6,LRSR,≤ 0.25
7,AKVD,≤ 0.25
8,AHSN,≤ 0.25
9,LNAW,≤ 0.25
10,NYTG,≤ 0.25
11,YCMA,0.422
12,FFDA,≤ 0.25
13,YTWS,≤ 0.25
14,FRGL,≤ 0.25
15,YEMF,≤ 0.25
16,NEAC,15.1
17,PAED,≤ 0.25
18,CLLR,≤ 0.25
19,FLLY,≤ 0.25
20,SVYD,≤ 0.25
21,RYSG,≤ 0.25
22,RDLN,≤ 0.25
23,NGMH,≤ 0.25
24,IKKF,≤ 0.25
25,HKHL,≤ 0.25

row,Variant,enrichment ratio
1,HGHG,≤ 0.25
2,ESKQ,≤ 0.25
3,YGWS,≤ 0.25
4,EGAR,≤ 0.25
5,PRTS,≤ 0.25
6,SRIS,≤ 0.25
7,SNIS,1.26
8,QYIP,≤ 0.25
9,ACYM,0.253
10,EYYP,≤ 0.25
11,HHPC,≤ 0.25
12,YRRE,≤ 0.25
13,FTLH,4.51
14,IDVE,≤ 0.25
15,IAVI,≤ 0.25
16,KSQL,≤ 0.25
17,THEL,≤ 0.25
18,MECC,14.4
19,DFAM,≤ 0.25
20,QFRF,≤ 0.25
21,VQPI,≤ 0.25
22,ALCH,6.41
23,AGKI,≤ 0.25
24,WLNM,≤ 0.25
25,RHNP,≤ 0.25

row,Variant,enrichment ratio
1,FGAD,≤ 0.25
2,FPLV,≤ 0.25
3,IAFC,≤ 0.25
4,EFMP,≤ 0.25
5,IPIM,2.05
6,FCTK,≤ 0.25
7,NALT,≤ 0.25
8,WMYM,≤ 0.25
9,GEHV,≤ 0.25
10,DLQP,≤ 0.25
11,RLES,≤ 0.25
12,FWIP,≤ 0.25
13,KWFH,≤ 0.25
14,MSHL,8.24
15,IVPH,≤ 0.25
16,FAHP,≤ 0.25
17,MTGA,≤ 0.25
18,HRWN,≤ 0.25
19,KMVI,≤ 0.25
20,IHSP,≤ 0.25
21,FGMW,≤ 0.25
22,KSRH,≤ 0.25
23,IYCK,≤ 0.25
24,IWQV,≤ 0.25
25,GDHD,≤ 0.25

row,Variant,enrichment ratio
1,NGFM,≤ 0.25
2,LVTP,≤ 0.25
3,MTNH,≤ 0.25
4,PFPN,≤ 0.25
5,PHLI,≤ 0.25
6,VHSN,≤ 0.25
7,FCQM,≤ 0.25
8,FPIN,≤ 0.25
9,LPVL,≤ 0.25
10,FTGY,≤ 0.25
11,MGAG,1.81
12,RCCM,≤ 0.25
13,ATSI,6.47
14,LRQC,≤ 0.25
15,FHYH,≤ 0.25
16,RDSN,≤ 0.25
17,IHKP,≤ 0.25
18,TYQC,≤ 0.25
19,MKHN,≤ 0.25
20,YFWK,≤ 0.25
21,IIKF,≤ 0.25
22,GMPA,≤ 0.25
23,KEAE,≤ 0.25
24,DNRT,≤ 0.25
25,VYEL,≤ 0.25

row,Variant,enrichment ratio
1,TVAS,14.3
2,WTWA,≤ 0.25
3,CNVL,0.317
4,AGKY,≤ 0.25
5,EDRK,≤ 0.25
6,ISFD,≤ 0.25
7,NDVA,≤ 0.25
8,QKGG,≤ 0.25
9,GYFN,≤ 0.25
10,STPW,≤ 0.25
11,TFGW,≤ 0.25
12,TCNV,16.2
13,KSRP,≤ 0.25
14,NTEK,≤ 0.25
15,GMWT,≤ 0.25
16,FRWH,≤ 0.25
17,YFMK,≤ 0.25
18,EMNL,≤ 0.25
19,RDRW,≤ 0.25
20,PTYN,≤ 0.25
21,KVQR,≤ 0.25
22,GLIW,≤ 0.25
23,FPLF,≤ 0.25
24,MVYW,0.543
25,GVVP,≤ 0.25

row,Variant,enrichment ratio
1,VWRN,≤ 0.25
2,WMTV,≤ 0.25
3,PEHE,≤ 0.25
4,WTYC,≤ 0.25
5,HFPC,≤ 0.25
6,MRSP,≤ 0.25
7,DPHD,≤ 0.25
8,FTCV,0.528
9,PVGH,≤ 0.25
10,KYYP,≤ 0.25
11,IHQS,≤ 0.25
12,GLDH,0.852
13,YWRV,≤ 0.25
14,SMQA,≤ 0.25
15,GHHS,≤ 0.25
16,PTLG,≤ 0.25
17,ARSF,≤ 0.25
18,KDKV,≤ 0.25
19,DDTL,1.57
20,YDVY,≤ 0.25
21,MNMQ,≤ 0.25
22,ISYL,0.331
23,VMPA,≤ 0.25
24,DCDE,≤ 0.25
25,IEFN,≤ 0.25

row,Variant,enrichment ratio
1,FCLY,0.728
2,AIWK,≤ 0.25
3,WASL,≤ 0.25
4,KMTV,≤ 0.25
5,WNCP,≤ 0.25
6,NKCH,≤ 0.25
7,MHRH,≤ 0.25
8,YMPQ,≤ 0.25
9,TTAR,0.591
10,RWAE,≤ 0.25
11,ILNK,≤ 0.25
12,NMWS,≤ 0.25
13,LIGQ,≤ 0.25
14,TWNV,≤ 0.25
15,FSFP,≤ 0.25
16,YPLC,≤ 0.25
17,IFWH,≤ 0.25
18,VHAS,≤ 0.25
19,HNPE,≤ 0.25
20,YVPL,≤ 0.25
